This is one part of the list.
What was measured:
HSkMC = human skeletal muscle cells; test: cytotoxicity call (relative viability < 0.9); conditions: 10 µM
HepG2 = test: cytotoxicity call (relative viability < 0.9); conditions: 10 µM
S. aureus RN4220 = test: growth inhibition call (relative growth <= 0.2); conditions: 50 µM

SMILES	cytotoxicity call (HSkMC)	cytotoxicity call (HepG2)	growth inhibition call (S. aureus RN4220)
C[C@H]1CCCCO[C@H](CN(C)Cc2ccc3c(c2)OCO3)[C@@H](C)CN([C@@H](C)CO)C(=O)c2cc(NC(=O)c3ccccc3)ccc2O1	inactive	inactive	inactive
C[C@@H]1CCCCO[C@@H](CN(C)Cc2ccc(Cl)c(Cl)c2)[C@@H](C)CN([C@H](C)CO)C(=O)c2cc(NC(=O)Nc3cccc4ccccc34)ccc2O1	inactive	inactive	inactive
OC[C@@H](O)[C@@H](O)[C@H](O)[C@@H](O)CO	inactive	inactive	inactive
C[C@H](CO)N1C[C@H](C)[C@H](CN(C)CC2CCCCC2)Oc2ccc(NC(=O)Cc3cn(C)c4ccccc34)cc2C1=O	inactive	inactive	inactive
Cc1ccc(S(=O)(=O)Nc2ccc3c(c2)C(=O)N([C@H](C)CO)C[C@@H](C)[C@@H](CN(C)CC2CCCCC2)OCCCC[C@H](C)O3)cc1	inactive	active	inactive
NCc1ccc2occc2c1	inactive	inactive	inactive
CC(C)NC(=O)Nc1ccc2c(c1)CC(=O)N([C@H](C)CO)C[C@H](C)[C@H](CN(C)Cc1ccc(Oc3ccccc3)cc1)O2	inactive	inactive	inactive
COc1ccc(NC(=O)Nc2ccc3c(c2)[C@@H]2C[C@H](CC(=O)N4CCN(C)CC4)O[C@H](CO)[C@@H]2O3)cc1	inactive	inactive	inactive
COc1c(O[C@@H]2O[C@H](CO)[C@@H](O)[C@H](O)[C@H]2O)cc2c(c1OC)-c1ccc(SC)c(=O)cc1[C@@H](NC(C)=O)CC2	inactive	inactive	inactive

Reference: the antibiotic and cytotoxicity screens of Wong et al. (2023)
